Screen size: about 45,000 compounds; about 65 (0.1%) were called active. Calls follow the shape of the dose curve; as a rule, active = well fitted activation curve with a large enough effect; inconclusive = small, poorly fitted or top-dose-only effect; inactive = no such curve, though single readings can be large or run the other way. Some of the results follow.
molecular target: Galactocerebrosidase (Homo sapiens) (UniProt P54803); assay: A Novel Cell-Based Assay to Identify Small Molecules for B -Galactocerebrosidase; settings: 145M-Twi-hGALC-G270D cells (Twitcher mouse brain line with human GALC G270D), HMU-beta-Gal fluorescence, 48 h; series mostly up to 57.5 µM; activation: at the top concentration; also: 0% is about no effect; nearly all actives have a fitted effect of over 65% in size
Sequence of UniProt P54803 (P54803 whole entry, looked up): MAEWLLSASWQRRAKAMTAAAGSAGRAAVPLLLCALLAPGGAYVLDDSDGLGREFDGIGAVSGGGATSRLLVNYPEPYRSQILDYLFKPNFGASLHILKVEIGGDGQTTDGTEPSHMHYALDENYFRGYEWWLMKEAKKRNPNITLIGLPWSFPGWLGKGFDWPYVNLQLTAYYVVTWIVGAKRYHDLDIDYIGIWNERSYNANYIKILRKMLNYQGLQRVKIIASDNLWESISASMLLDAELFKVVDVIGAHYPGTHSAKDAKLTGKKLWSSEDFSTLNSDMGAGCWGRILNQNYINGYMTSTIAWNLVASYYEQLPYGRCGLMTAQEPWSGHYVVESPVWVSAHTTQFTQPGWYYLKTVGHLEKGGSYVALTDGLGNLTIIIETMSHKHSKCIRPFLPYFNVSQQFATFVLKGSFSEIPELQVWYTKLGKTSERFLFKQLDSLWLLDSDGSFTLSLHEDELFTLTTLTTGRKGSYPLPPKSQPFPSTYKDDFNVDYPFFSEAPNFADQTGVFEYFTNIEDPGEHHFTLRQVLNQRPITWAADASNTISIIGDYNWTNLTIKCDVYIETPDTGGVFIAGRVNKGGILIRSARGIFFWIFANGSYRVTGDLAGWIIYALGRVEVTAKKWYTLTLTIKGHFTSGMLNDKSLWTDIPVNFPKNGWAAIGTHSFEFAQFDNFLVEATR
Outline: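 Live 145M-Twi cells (Twitcher mouse brain-derived, GALC-null) stably expressing human GALC-G270D, with a wild-type GALC line, were compound-treated. Residual GALC activity was then read as fluorescence from 0.1 mM final HMU-β-gal at pH 5.2; higher signal means activation.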

| Compound | activation |
| --- | --- |
| COc1ccc(-c2cc3nc(C)c(CCC(=O)NC(C)c4ccccc4)c(C)n3n2)c(OC)c1 (configuration not stated) | inactive: -27.1% |
| Cc1c(Cl)ccc2sc(N3CCN(C(=O)C4CC4)CC3)nc12 | inactive: -15.2% |
| COc1ccc(-c2onc(C)c2C)cc1S(=O)(=O)N1CCN(c2cc(C)ccc2C)CC1 | inactive: -5.13% |
| Cc1cccc(NC(=O)N2CCC(CN3CCCCCC3)CC2)c1C | inactive: -11.5% |
| CC1CCN(S(=O)(=O)c2ccc3c(c2)CCN3C(=O)Nc2ccc(Br)cc2F)CC1 | inactive: -9.49% |
| O=C1c2ccccc2S(=O)(=O)N1CCCCN1CCN(c2ncccn2)CC1 | inactive: -7.78% |
| Cc1ccc(C2CCN(C(=O)c3cnn(-c4ccc(C)c(C)c4)c3C3CCN(C(=O)OC(C)(C)C)CC3)C2)cc1 (configuration not stated) | inactive: -1.08% |
| CN(C)CCCO[C@@H]1[C@H]2OC(C)(C)O[C@H]2O[C@@H]1C(O)CO (some centres not stated) | inactive: -8.64% |
| CCc1ccccc1NC(=O)Cn1nc(N2CCN(c3ccccc3OC)CC2)ccc1=O | inactive: -6.35% |
| COc1ccc(OC)c(NC(=O)CC(=O)Nc2ccc3nc4n(c(=O)c3c2)CCCCC4)c1 | inactive: -15.1% |
| Cc1nc(SCC(=O)Nc2ccc(C(=O)O)cc2)n[nH]1 | inactive: -20% |
| CCOc1ccccc1C(=O)N1CCC(c2nc3ccccc3o2)CC1 | inactive: -10.7% |
| COc1ccc(C(=O)NCc2ccc(OCCN(C)C)cc2)cc1OC | inactive: -19.9% |
| Cc1ccc(C)c(N2CCN(C(=O)CSCc3ccccc3Cl)CC2)c1 | inactive: -1.5% |
| COc1cccc(NC(=O)CC2Nc3cc(C)c(C)cc3NC2=O)c1 (configuration not stated) | inactive: -4.57% |
| O=C(Nc1ncc([N+](=O)[O-])s1)c1cccs1 | inactive: -5.59% |
| CC(C)(C)c1ccc(C(=O)Nc2onc3c2CCCC3)cc1 | inactive: -14.7% |
| Cc1ccc(CNC(=O)CC2Oc3ccc(Cl)cc3NC2=O)cc1 (configuration not stated) | inactive: -2.28% |
| CCOc1ccc(NS(=O)(=O)c2ccc3c4c(cccc24)C(=O)N3)cc1 | inactive: -8.79% |
| CC(C)(C)c1ccc(C(=O)NCC(c2ccc(Cl)cc2)N2CCOCC2)cc1 (configuration not stated) | inactive: -4.26% |
| Cc1ccc(CN(Cc2ccco2)C(=O)COc2ccc(C)c(C)c2)cc1 | inactive: -0.194% |

| Compound | activation |
| --- | --- |
| Cc1cccc(NC(=O)CCS(=O)(=O)c2cc(Br)cc3c2N(C(=O)C2CC2)CC3)c1 | inactive: 2.88% |
| CCS(=O)(=O)N1CC(=O)N(c2ccc(Cl)cc2)C(C)(C(=O)NC2CCCCC2)C1 (configuration not stated) | inactive: -5.55% |
| CCOc1cccc2cc(S(=O)(=O)c3ccccc3F)c(=O)oc12 | inactive: -20.7% |
| Cc1ccc(CO)cc1Nc1ncnc2onc(-c3ccc(F)cc3)c12 | inactive: -8.09% |
| CC(=O)Nc1ccccc1-c1nc2ccccc2n(CC(=O)Nc2cccc(C(F)(F)F)c2)c1=O | inactive: -11.4% |
| COc1ccc(/C=C/C(=O)Nc2nc(-c3cccs3)ns2)cc1OC | inactive: -9.85% |
| COc1ccc(N2CC(NC(=O)c3ccc(S(=O)(=O)N4CCCCC4)cc3)CC2=O)cc1 (configuration not stated) | inactive: 7.9% |
| CCc1cccc(NC(=O)C(Cc2ccccc2)n2cccc2)c1 (configuration not stated) | inactive: -2.93% |
| CCOc1ccc(CNC(=O)c2ccc3c(c2)nc2n3CCOC2)cc1OC | inactive: -16.1% |
| Cc1ccc(C(=O)Nc2c(C)nc3ccccn3c2=O)cc1C | inactive: -18.8% |
| CCCOc1cccc(C(=O)Nc2cc(-c3ccccc3)no2)c1 | inactive: -1.19% |
| CC1=C(C(=O)Nc2ccc(F)cc2F)C2(CCN(C(C)C)CC2)OC1=O | inactive: 1.38% |
| CCc1ccc(NC(=O)CN(c2cc(C)cc(C)c2)S(=O)(=O)c2c(C)[nH]c(=O)[nH]c2=O)cc1 | inactive: -15.3% |
| Cc1ccc(CNC(=O)c2ccc3nc(SCc4ccc(F)cc4)[nH]c3c2)cc1 | inactive: -10.2% |
| CC1=C(c2ccc(C(C)C)cc2)S(=O)(=O)N=C1N1CCC(C(=O)NCCc2ccco2)CC1 | inactive: -6.58% |
| COc1cccc(-c2nc(SCC(=O)NC3CCCC3)c(-c3ccc(C)cc3)[nH]2)c1 | inactive: -18.9% |
| CCN(CC)C(=O)CSc1nc(-c2ccc(C)cc2)nc2c1Cc1c(CO)cnc(C)c1O2 | inactive: -11.9% |
| CCN(c1ccccc1)S(=O)(=O)c1c(-c2ccc(C)cc2)csc1C(=O)OC | inactive: -18.1% |
| COc1ccccc1C(=O)Nc1ccc2oc(-c3cccc4c(Br)cccc34)nc2c1 | inactive: -10.3% |
| CCC1Oc2ccc(Cl)cc2N(CC(=O)NCCc2ccc(Cl)cc2)C1=O (configuration not stated) | inactive: -13.8% |
| CCCN1Cc2cccc(C(=O)Nc3cccc(C(=O)OCC)c3)c2C1=O | inactive: -7.39% |

| Compound | activation |
| --- | --- |
| CCc1cccc(C)c1NC(=O)Cn1nc(C)c2nn(-c3ccc(Cl)cc3)c(C)c2c1=O | inactive: -15.1% |
| COc1ccc(/C=C/C(=O)Nc2ccc3nc(N4CCC(C)CC4)cc(C)c3c2)cc1 | inactive: -2.6% |
| CCCCCCCCCCCCCCCC[n+]1ccccc1 | inactive: -14.7% |
| COCCNc1nc(NCc2cccc(Cl)c2)c2cnn(C)c2n1 | inactive: -12% |
| C=Cc1ccc(Cn2c(C)c(CNCc3ccccc3C)c(C(=O)O)c2C)cc1 | inactive: 7.08% |
| COc1ccccc1CNC(=O)CCn1c(=O)c2cccn2c2cccnc21 | inactive: -4.59% |
| O=[N+]([O-])c1cc(-c2nc(-c3ccccc3)no2)ccc1NC1CCCCC1 | inactive: 6.04% |
| O=C(Cc1csc2nc(-c3ccc(F)cc3)cn12)NCc1ccccc1 | inactive: -13.5% |
| CCN(C(=O)CN1C(=O)COc2ccc(S(=O)(=O)N3CCOCC3)cc21)c1ccc(OC)cc1 | inactive: -16.5% |
| Cc1ccc(NC(=O)c2ccc3c(O)c(S(=O)(=O)c4ccccc4)c(=O)[nH]c3c2)cc1Cl | inactive: -26.6% |
| O=C(Nc1nnc(S(=O)(=O)N2CCCCC2)s1)c1ccccc1Br | inactive: -21.1% |
| Cc1ccc(-c2nnc(Nc3ccc(C(=O)N(C)C)cc3)c3ccccc23)cc1S(=O)(=O)N(C)C | inactive: -8.96% |
| N[C@@H](C(=O)N[C@@H]1C(=O)N2C(C(=O)O)=C(Cl)CS[C@H]12)c1ccccc1 | inactive: -4.94% [at 11.5 µM] |
| COc1ccc(C(=O)NCC(c2ccc(N(C)C)cc2)N2CCc3ccccc32)cc1OC (configuration not stated) | inactive: -21.2% |
| COC(=O)c1ccccc1NC(=O)C1CCN(C(=O)N2CC(C)Oc3ccccc32)CC1 (configuration not stated) | inactive: -6.75% |
| Cc1ccc(OCC(=O)Nc2ccccc2OCc2cc(=O)n3ccccc3n2)cc1C | inactive: -1.89% |
| Cc1cccc(NC(c2ccccc2F)c2ccc3ccc(C)nc3c2O)n1 (configuration not stated) | inactive: -6.89% |
| CN1[C@@H]2CC[C@H]1CC(NC(=O)n1c(=O)[nH]c3ccccc31)C2 (some centres not stated) | inactive: -15.5% |
| COc1ccc(-c2nc3ccccc3s2)cc1NC(=O)c1ccc(F)cc1 | inactive: -15.6% |
| O=C(Nc1cccc(F)c1)c1ccc2c(c1)N(Cc1ccccc1)C(=O)c1ccccc1S2(=O)=O | inactive: -21.2% |

From PubChem BioAssay AID1159614 (National Center for Advancing Translational Sciences (NCATS), 2016)
